# Results reported in PMC4336329 (PLoS ONE, 2015).
# Screen size: about 310,000 compounds; about 2,200 (0.71%) showed an effect of 50% or more. Effects have a minus sign here. This is one part of the list.
# Biological target: human ether-à-go-go-related gene (hERG) potassium channel (human, UniProt Q12809)
# Assay: primary screen, population patch clamp on CHO cells stably expressing hERG
# Description: Briefly, Chinese hamster ovary (CHO) cells stably expressing the hERG channel were dislodged from tissue culture flasks and dispensed into PPC plates. […] During the recording, background leak currents were estimated by a 100 ms step to -80 mV from an initial holding potential of -70 mV and subtracted from the subsequent current measurement. The campaign was conducted in two phases using slight differences in recording protocol. In the first phase, the initial voltage pulse used a 100 ms step to -30 mV from a holding potential of -70 mV, a 2 s conditioning step to +25 mV, and a 2 s test step to -30 mV. During the second phase of the screen, the potential during the conditioning step was raised to +45 mV. In both phases of the campaign, a secondary voltage pulse was applied using the same parameters as the second phase initial pulse. The initial and secondary pulses were applied in the absence of compound, and upon application of 1 μM and 10 μM test concentrations. Small molecule effects on hERG current density were quantified by […].
# Sequence of human ether-à-go-go-related gene (hERG) potassium channel (Q12809 whole entry, looked up): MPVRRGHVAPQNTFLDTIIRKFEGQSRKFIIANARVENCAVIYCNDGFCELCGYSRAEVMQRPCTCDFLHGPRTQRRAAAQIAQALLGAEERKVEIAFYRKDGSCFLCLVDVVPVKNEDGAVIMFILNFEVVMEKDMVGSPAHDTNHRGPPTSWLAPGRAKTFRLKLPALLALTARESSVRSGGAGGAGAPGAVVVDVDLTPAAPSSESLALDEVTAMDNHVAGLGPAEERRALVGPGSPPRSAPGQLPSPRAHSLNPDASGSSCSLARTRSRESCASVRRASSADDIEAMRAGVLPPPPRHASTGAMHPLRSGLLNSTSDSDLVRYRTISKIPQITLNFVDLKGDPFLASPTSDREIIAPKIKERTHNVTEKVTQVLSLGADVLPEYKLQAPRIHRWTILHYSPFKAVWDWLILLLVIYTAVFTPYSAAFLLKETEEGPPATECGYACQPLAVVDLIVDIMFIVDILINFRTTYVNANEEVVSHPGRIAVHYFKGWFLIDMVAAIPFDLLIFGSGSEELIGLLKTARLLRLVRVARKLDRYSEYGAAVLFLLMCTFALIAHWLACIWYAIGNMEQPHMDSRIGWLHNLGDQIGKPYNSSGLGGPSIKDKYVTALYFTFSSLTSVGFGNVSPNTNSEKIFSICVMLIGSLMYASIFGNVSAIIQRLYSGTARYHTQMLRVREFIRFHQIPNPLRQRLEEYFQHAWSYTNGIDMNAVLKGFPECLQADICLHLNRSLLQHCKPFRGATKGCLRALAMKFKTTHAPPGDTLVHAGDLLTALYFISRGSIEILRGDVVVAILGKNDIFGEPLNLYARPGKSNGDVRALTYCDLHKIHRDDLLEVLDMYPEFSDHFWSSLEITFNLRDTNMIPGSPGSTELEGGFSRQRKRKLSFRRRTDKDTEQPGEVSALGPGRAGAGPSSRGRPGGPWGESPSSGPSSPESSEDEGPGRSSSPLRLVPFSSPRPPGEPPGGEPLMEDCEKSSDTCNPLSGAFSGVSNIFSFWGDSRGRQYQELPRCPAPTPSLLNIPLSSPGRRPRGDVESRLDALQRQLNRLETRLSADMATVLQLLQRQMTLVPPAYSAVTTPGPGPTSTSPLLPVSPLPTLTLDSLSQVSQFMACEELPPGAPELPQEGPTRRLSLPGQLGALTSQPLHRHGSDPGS
row,Structure (SMILES),"hERG current change (%, negative = inhibition) at 1uM [%]"
1,CC(C)C12CN3CC(C(C)C)(CN(C1)C3c1cccnc1)C2=O (stereo not shown),7.09
2,CCC(C)(C(=O)NC1CCCCC1)N(C(=O)c1ccccn1)c1ccc(C)cc1 (stereo not shown),8.52
3,CCCc1ccc(NS(=O)(=O)c2c(C)oc(C)c2C(=O)OC)cc1,9.92
4,O=C(C1CCCN(Cc2ccccc2F)C1)N1CCc2ccccc2C1.O=C(O)C(=O)O (stereo not shown),9.16
5,COc1ccc2cc(S(=O)(=O)NCc3cccnc3)ccc2c1,7.92
6,CCC(=O)Nc1ccc(NC(=S)NC(=O)c2cc3ccccc3o2)cc1,4.98
7,C/C(=N/NC(=O)Nc1ccccc1)c1ccc(C)cc1,3.84
8,CCOc1ccccc1NC(=O)CSc1nc2cccnc2n1C,5.84
9,COc1cc(C)nc(-n2nc(C)cc2OC)n1,13.5
10,Cn1nc(C(F)(F)F)c2cc(C(=O)N3CCOCC3)sc21,5.87
11,OC(COc1cccc(OCC(O)CN2CCCC2)c1)CN1CCCC1 (stereo not shown),4.76
12,c1ccc(Oc2cccc(OCCn3cncn3)c2)cc1,-3.65
13,COc1ccc(NS(=O)(=O)c2cc(NC(=O)CCNC(C)=O)ccc2N2CCOCC2)cc1,11.5
14,CO/N=C(/CS(=O)Cc1ccccc1Cl)c1ccc(Cl)cc1Cl (stereo not shown),8.12
15,CCc1ccc(/C=C2\SC(N3CCCC3)=NC2=O)cc1,-4.96
16,COCCN1CCN(C(=O)C2CCC(=O)N(Cc3ccc(Cl)cc3)C2)CC1 (stereo not shown),10.1
17,CC(C)(C)c1cc(OC(=O)c2ccccc2F)ccc1O,11.5
18,CCn1cc(CNCc2c(C(=O)N3CCCCC3)nc3c(C)cccn23)cn1,5.99
19,Fc1ccc(Nc2ccnc(C(F)(F)F)c2)cc1,15.5
20,Cc1ccc(NS(=O)(=O)c2ccc(Br)cc2)nc1,12.9
21,CC(C)(C)c1cc(C(=O)NC2CC2)n(Cc2ccc(F)cc2)n1,8.75
22,CCOC(=O)Cn1nnnc1CN(Cc1cccs1)Cc1cc2cc(C)cc(C)c2[nH]c1=O,-0.811

row,Structure (SMILES),"hERG current change (%, negative = inhibition) at 1uM [%]"
1,COc1cc2c(cc1OC)CN(C(=O)CN1CCN(S(=O)(=O)c3ccccc3Br)CC1)CC2,0.741
2,CN(C(=O)c1cccn(Cc2ccccc2)c1=O)c1ccccc1,11.2
3,COCCCNC(=O)/C(C#N)=C/c1cccc(NC(=O)c2ccccc2Cl)c1,13.9
4,Cc1nn(Cc2ccc(Cl)cc2Cl)c(C)c1NC(=O)c1ccc(COc2cc(Cl)ccc2Cl)o1,3.19
5,Cc1cccc(CNC(=O)c2ccc3c(c2)N(C)CCS3)c1,-20.7
6,CC(C)(C)C(O)/C=C/c1ccc2c(c1)OCO2 (stereo not shown),9.29
7,CCOC(=O)CN(C(=O)CSc1nnc(-c2ccc(OC)c(OC)c2)o1)c1ccc(F)cc1,0.729
8,Cc1ccccc1-n1c(=O)n(Cc2ccco2)c(=O)c2[nH]cnc21,12.8
9,O=C(Nc1nnc(-c2ccc(Cl)cc2)o1)c1ccc(N2C(=O)CCC2=O)cc1,4.39
10,O=C(c1cc(-c2cccs2)on1)N1CCOCC1,-6.55
11,CCC1S/C(=N/C(=O)NC2CCCCC2)NC1=O (stereo not shown),14.7
12,CN(C)C(CNC(=O)CCNC(=O)c1ccc(Br)cc1)c1ccco1 (stereo not shown),3.59
13,CC(C)COc1ccc(/C(=N/O)c2ccccc2)cc1,14.1
14,O=C1CC(=O)N(CCNc2ncc(C(F)(F)F)cc2Cl)C(=O)N1,18.2
15,O=C(c1ccco1)N1CCN(C2CC(=O)N(c3ccc(F)c(Cl)c3)C2=O)CC1 (stereo not shown),2.02
16,NS(=O)(=O)c1ccc(CCNC(=O)CN2C(=O)c3ccccc3S2(=O)=O)cc1,-0.323
17,COc1cc(NC(=O)CCNC(=O)Cn2cnc3ccccc3c2=O)cc(OC)c1OC,21.4
18,O=S(=O)(c1ccccc1)N1CCN(c2ccccc2)CC1,14.5
19,Cc1cccc(C(=O)OC(C)C(=O)N2CCc3ccccc3C2)c1C (stereo not shown),5.93
20,Cc1ccc(S(=O)(=O)c2nc(-c3ccc(F)cc3)oc2N2CCOCC2)cc1,-0.115
21,CC1CCC2(CC1)NC(=O)N(CC(=O)NCCc1c[nH]c3ccccc13)C2=O (stereo not shown),-5.87
22,CC(C)CCNc1nc2ccccc2nc1NS(=O)(=O)c1cccs1,5.67

row,Structure (SMILES),"hERG current change (%, negative = inhibition) at 1uM [%]"
1,c1ccc2[nH]c(N3CCOCC3)nc2c1,4.17
2,COc1ccc(NC(=O)N2CCCC(c3nc(-c4ccc(OC)cc4)no3)C2)cc1 (stereo not shown),1.38
3,S=C(Nc1ccccc1)N(CCN1CCOCC1)Cc1cccc(Cl)c1,8.7
4,COc1ccc(OCC(=O)Nc2c(C(=O)N3CCN(C)CC3)oc3ccccc23)cc1,-15
5,CCN(C(=O)Cn1ccc(C(F)(F)F)n1)c1c(N)n(Cc2ccccc2)c(=O)[nH]c1=O,-4.36
6,CC(C)(C)OC(=O)N[C@@H](Cc1c[nH]c2ccccc12)c1nnc(SCC(N)=O)o1,6.29
7,COc1ccc(C)cc1NC(=O)CC(NC(C)=O)c1ccccc1 (stereo not shown),5.97
8,CC(C)C[C@@]12C(=O)N(c3ccc(Br)cc3)C(=O)N1[C@H](c1ccc(Br)cc1)[C@@H]1C(=O)N(C(C)(C)C)C(=O)[C@@H]12,5.48
9,CN(Cc1ccccc1)C(=O)c1ccc(NC(=O)Cc2cccc(NC(=O)C3CCN(C(=O)C4CCCCC4)CC3)c2)cc1,6.82
10,COc1cc(S(=O)(=O)NCc2ccccn2)c(OC)cc1Cl,7.67
11,Cc1nc2c(c(=O)[nH]1)C(c1ccccc1Cl)c1c(c3ccccc3oc1=O)O2 (stereo not shown),9.85
12,CC1=C(C(=O)Nc2ccc(C)cc2)C(c2ccco2)NC(=O)N1 (stereo not shown),7.52
13,COc1ccc(-c2nnn(CC(=O)NCc3ccccc3)n2)cc1OC,8.49
14,NC(=O)COC(=O)c1cc(=O)[nH]c2ccccc12,8.25
15,CCOC(=O)/C(C#N)=C/c1c(Oc2cc(C)cc(C)c2)nc2ccccn2c1=O,9.54
16,COc1ccc(NC(=S)N(CCN(C)C)C(C)c2ccco2)cc1Cl (stereo not shown),9.29
17,CCc1c(C)nc(SCc2ccccn2)[nH]c1=O,7.35
18,CC(=O)Oc1ccc(/C=c2\sc3ncnn3c2=O)cc1,6.94
19,O=C(NCc1cccnc1)C1CC(=O)N(C2CCCCC2)C1 (stereo not shown),7.58
20,CCCOC1CCCN(Cc2nc(-c3ccc(C(=O)OC)cc3)no2)C1 (stereo not shown),9.34
21,CCOC(=O)CC(NC(=O)CCS(=O)(=O)c1ccc2c(c1)n(C)c(=O)c(=O)n2C)c1ccc(C)cc1 (stereo not shown),17.3
22,COc1ccc(C(=O)N(Cc2ccco2)Cc2cccs2)c(O)c1,15.4

row,Structure (SMILES),"hERG current change (%, negative = inhibition) at 1uM [%]"
1,COc1ccc(N(C)S(=O)(=O)c2cccc(C(=O)Nc3cccc(C(=O)NC4CC4)c3)c2)cc1,3.16
2,C#CCn1c(=NC(=O)CN2C(=O)CCC2=O)sc2cc(S(N)(=O)=O)ccc21,13.7
3,O=C(N/N=C/c1ccccc1O)c1ccc2c(c1)OCO2,18.4
4,Oc1oc(-c2ccccc2Br)nc1/C=N/c1ccccn1,18.6
5,CCCc1cc(=O)oc2cc(C)cc(OCC(=O)Nc3cccnc3)c12,4.3
6,CN(C)C(CNC(=O)CCCc1c[nH]c2ccccc12)c1ccco1 (stereo not shown),-1.33
7,O=C(O)CCSC1CC(=O)N(c2ccccc2)C1=O (stereo not shown),12.4
8,Cc1sc2ncnc(N[C@@H](Cc3c[nH]c4ccccc34)C(=O)O)c2c1C,6.73
9,O=C(NCC(=O)N(Cc1cccs1)C(C(=O)NC1CCCC1)c1ccncc1)c1ccco1 (stereo not shown),-6.84
10,Cc1c(C)c2ccc(OS(C)(=O)=O)cc2oc1=O,3.59
11,O=C1c2ccccc2N2C(=O)c3ccccc3[C@H]2N1c1ccccc1,1.9
12,COc1ccc(-c2nnc(NC(=O)C(C)C)o2)cc1,8.72
13,C=CCn1c(=O)c2c3c(sc2n2c(Nc4ccc(C(=O)OCC)cc4)nnc12)CCCC3,12.7
14,O=C(Nc1ccc([N+](=O)[O-])cc1)c1cncc(Br)c1,4.11
15,O=C(Nc1ccc(NS(=O)(=O)c2ccccc2)cc1)c1cccnc1,10.4
16,O=C(Nc1ccccc1[N+](=O)[O-])C1C(c2ccccc2)=C1c1ccccc1,11.7
17,CN(/N=C/c1cccnc1)C1=NS(=O)(=O)c2ccccc21,12.1
18,N#CC(C#N)C(c1ccsc1)c1c(-c2ccccc2)[nH][nH]c1=O (stereo not shown),-5.71
19,CC1c2cc3c(cc2CCN1CC(=O)Nc1ccccc1)OCCCO3 (stereo not shown),8.91
20,CN(C)P(=O)(NC(=O)c1cccn1C)N(C)C,10.4
21,COc1ccccc1-c1nc(=S)c(C(C)=O)c(C)[nH]1,5.33
22,Cc1cc(C)nc(SC(C)C(=O)N/N=C/c2cccs2)n1 (stereo not shown),5.06
